Results as given in PubChem BioAssay AID686971 (National Center for Advancing Translational Sciences (NCATS), 2013).
Hit rate of the full screen: of about 360,000 compounds, about 7,500 (2.1%) were called active. Inconclusive means that the source gave no clear call. Such entries were picked first, then a sample of the others. The call rests on the fitted dose curve; in most records, active means well fitted cell-killing curve with a large enough effect; inconclusive means small, poorly fitted or top-dose-only effect, or effect the other way, or another doubt; inactive means no such curve, though single readings can be large or run the other way. Potencies of inconclusive entries are left out as doubtful fits.

Assay: qHTS for induction of synthetic lethality in tumor cells producing 2HG: qHTS for the HT-1080-IDH1KD cell line;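 on activity, negative = toxicity: 0% = DMSO wells and -100% = cell-free medium wells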
Conditions: HT-1080 IDH1 knockdown viability, ATP luminescence, 48 h; activity, negative = toxicity: at 46.1 µM (top of the series) unless noted
How it was run: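 Viability of IDH1-knockdown HT-1080 fibrosarcoma cells was assessed by CellTiter-Glo after 48 h at 37 °C with titrated compound; concentration-effect curves were classified by fit quality and response size.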
Potency means the concentration at half of the fitted maximal effect; tags describe the fitted curve by direction and shape.

Structure (SMILES)	activity, negative = toxicity	Potency
Clc1ccc(C=NNc2ccccn2)c(Cl)c1	inconclusive: 18.8%	–
CCCCCCc1cc2cc(C(=O)OCC)c(=O)oc2cc1O	inactive: -10.8%	–
COc1ccc(C2=C(CN(C)C)C(c3ccccc3)c3ccccc3O2)cc1 (stereo unspecified)	–	active: 23.1 µM
O=C1/C(=C/c2ccccc2)CN(C(=O)CCN2CCOCC2)C/C1=C\c1ccccc1	–	inconclusive [cytotoxic, partial curve, poor fit]
O=C(Nc1nnc(COc2ccccc2)s1)C1CCN(S(=O)(=O)c2ccc(Cl)cc2)CC1	–	inconclusive [cytotoxic, single point]
ClC1(Cl)CC1CSc1nc2ccccc2[nH]1 (stereo unspecified)	inactive: -27%	–
OC(c1ccc2ccccc2c1)c1ncc(-c2cccc3ccccc23)[nH]1 (stereo unspecified)	–	active: 25.9 µM
COc1cccc(N2CCN(C(=O)c3ccc(CS(=O)c4ccc(Cl)cc4)o3)CC2)c1 (stereo unspecified)	–	active: 1.84 µM
COc1cccc(-c2sc3ccc(OC)cc3c2-c2ccc(C(N)=O)cc2)c1	inactive: -18.8%	–
Cc1c(Cc2ccccc2)c(=O)n2c([nH]c3ccccc32)c1C#N	–	inconclusive [cytotoxic, single point]
O=C(Nc1ccc(CN2CCOCC2)cc1)c1cccc(-c2cc3ccccc3oc2=O)c1	–	inconclusive [cytotoxic, partial curve, poor fit]
O=C1[C@@H](Oc2ccccc2)[C@@H](c2cnc3ccccc3c2)N1c1ccccc1	–	active: 20.6 µM
CCOC(=O)Cn1nc(C)c(NC(=O)c2cccc([N+](=O)[O-])c2)c1C	–	inconclusive [rising, partial curve]
COc1ccc(C(=O)OCC(=O)Nc2ccc(F)c(F)c2F)cc1OC	–	inconclusive [cytotoxic, single point]
COC(=O)c1cnc(Oc2c(Cl)cc(N)cc2Cl)cc1C(F)(F)F	–	active: 16.4 µM
CCOc1ccccc1C1CC(=O)Nc2cc(C)c(C)cc21 (stereo unspecified)	–	active: 14.6 µM
C=C(CCO)C1=CCN(S(=O)C(C)(C)C)[C@@H]1CCO (stereo partly specified)	inactive: -0.777%	–
CCCCCCCCN1C(=O)[C@H](CC(=O)NCc2cccc(C(F)(F)F)c2)C[C@@]2(C(=O)OCC)CCCC=C12	–	active: 14.6 µM
CC1(C(=O)Nc2ccc(F)c(Cl)c2)Cc2c(-c3cccc(C(F)(F)F)c3)ccnc2O1 (stereo unspecified)	–	inconclusive [cytotoxic, single point]
CCOC(=O)C1CCCN(C(=O)Cn2cccc2C(=O)c2ccccc2)C1 (stereo unspecified)	inactive: 1.47%	–
CCCC(=O)Nc1ccc(C(=O)/C=C/c2ccc(SC)cc2)cc1	–	inconclusive [cytotoxic, single point]
CCNCCC(=O)N1c2ccccc2Sc2ccc(C(F)(F)F)cc21	–	inconclusive [cytotoxic, single point]
Cc1cccc(Oc2ccc(S(=O)(=O)N3CCCCC3)cc2N)c1	–	inconclusive [cytotoxic, single point]

Structure (SMILES)	activity, negative = toxicity	Potency
O=S(=O)(c1cccs1)N1CCN(CC(O)COc2cc(Cl)ccc2Cl)CC1 (stereo unspecified)	–	inconclusive [cytotoxic, partial curve]
Cn1cc([N+](=O)[O-])c(C(=O)Nc2ccn(Cc3c(F)c(F)cc(F)c3F)n2)n1	–	active: 6.31 µM
Cn1cccc1C(C#N)c1cccc(F)c1C#N (stereo unspecified)	inactive: -2.65%	–
CN1C(=O)C(C)(C)c2cc(S(=O)(=O)N3CCC(C(=O)NCc4ccccc4Cl)CC3)ccc21	inactive: -1.82%	–
Cc1cc(N2CCN(c3ccc(C(F)(F)F)cc3[N+](=O)[O-])CC2)c2ccccc2n1	–	inconclusive [cytotoxic, single point]
O=C(c1cc(COc2ccc(F)cc2Cl)on1)N1CCc2ccccc2C1	–	inconclusive [rising, partial curve]
COc1ccccc1NS(=O)(=O)c1cc(NC(=O)c2cc3ccccc3oc2=O)ccc1C	–	inconclusive [cytotoxic, single point]
C(=NN=C1c2ccccc2-c2ccccc21)c1c[nH]c2ccccc12	–	inconclusive [cytotoxic, single point]
COc1ccccc1OC(C)C(=O)Nc1nc(-c2ccc(S(=O)(=O)N3CCOCC3)cc2)cs1 (stereo unspecified)	inactive: -2.31%	–
CC1(c2ccc(OC(F)F)cc2)NC(=O)N(CC(=O)Nc2ccc3c(c2)OCO3)C1=O (stereo unspecified)	–	inconclusive [cytotoxic, partial curve]
Cn1cc(CN2CCC(CO)CC2)c(-c2ccc(Oc3ccccc3)cc2)n1	–	inconclusive [cytotoxic, single point]
C=CCc1ccccc1OCC(O)CN1CCN(c2ccccc2F)CC1 (stereo unspecified)	–	inconclusive [cytotoxic, single point]
O=C(Cc1ccccc1)NCC(=O)N/N=C/c1ccc([N+](=O)[O-])s1	–	inconclusive [cytotoxic, partial curve]
COc1ccc(S(=O)(=O)NN(C)c2nc(C(F)(F)F)nc3ccccc23)cc1	–	active: 16.4 µM
OCC(O)C1OC(Nc2ccc(Br)cc2)C(O)C1O (stereo unspecified)	–	inconclusive [cytotoxic, partial curve]
CCCCCCCCCn1ccc(=N)cc1	–	active: 14.6 µM
Cc1nc2cc(-c3cccc(F)c3)nn2c(C)c1CCC(=O)NC(C)CCc1ccco1 (stereo unspecified)	inactive: -23%	–
CC1(C(=O)NCc2cccs2)Cc2c(-c3ccc(C(N)=O)cc3)ccnc2O1 (stereo unspecified)	–	active: 14.6 µM
Cc1ccc(NC(=O)Cn2nnc(C(=O)NCCc3ccccc3)c2N)cc1Cl	–	inconclusive [cytotoxic, single point]
CCCCc1c(-c2cccc(Br)c2)ncn1CCc1ccccc1OC	–	inconclusive [cytotoxic, single point]
Cc1ccc(NCC(=O)Nc2cccc(F)c2)cc1S(=O)(=O)N1CCCCCC1	–	inconclusive [cytotoxic, single point]
CCn1c(/C=C/c2cccc([N+](=O)[O-])c2)nc2ccccc2c1=O	inactive: 9.14%	–
COc1ccc(-c2ccccc2)cc1NC(=O)C1(C)CCN1C(=O)C(C)C (stereo unspecified)	inactive: 12.1%	–
